# Results from paper PMC4336329 (PLoS ONE, 2015).
# Hit rate of the full screen: of about 310,000 compounds, about 2,200 (0.71%) showed an effect of 50% or more. Effects have a minus sign here. The list shows a part of the results.
# Biological target: human ether-à-go-go-related gene (hERG) potassium channel (human, UniProt Q12809)
# Experiment: primary screen, population patch clamp on CHO cells stably expressing hERG
# Sequence of human ether-à-go-go-related gene (hERG) potassium channel (Q12809 whole entry, looked up): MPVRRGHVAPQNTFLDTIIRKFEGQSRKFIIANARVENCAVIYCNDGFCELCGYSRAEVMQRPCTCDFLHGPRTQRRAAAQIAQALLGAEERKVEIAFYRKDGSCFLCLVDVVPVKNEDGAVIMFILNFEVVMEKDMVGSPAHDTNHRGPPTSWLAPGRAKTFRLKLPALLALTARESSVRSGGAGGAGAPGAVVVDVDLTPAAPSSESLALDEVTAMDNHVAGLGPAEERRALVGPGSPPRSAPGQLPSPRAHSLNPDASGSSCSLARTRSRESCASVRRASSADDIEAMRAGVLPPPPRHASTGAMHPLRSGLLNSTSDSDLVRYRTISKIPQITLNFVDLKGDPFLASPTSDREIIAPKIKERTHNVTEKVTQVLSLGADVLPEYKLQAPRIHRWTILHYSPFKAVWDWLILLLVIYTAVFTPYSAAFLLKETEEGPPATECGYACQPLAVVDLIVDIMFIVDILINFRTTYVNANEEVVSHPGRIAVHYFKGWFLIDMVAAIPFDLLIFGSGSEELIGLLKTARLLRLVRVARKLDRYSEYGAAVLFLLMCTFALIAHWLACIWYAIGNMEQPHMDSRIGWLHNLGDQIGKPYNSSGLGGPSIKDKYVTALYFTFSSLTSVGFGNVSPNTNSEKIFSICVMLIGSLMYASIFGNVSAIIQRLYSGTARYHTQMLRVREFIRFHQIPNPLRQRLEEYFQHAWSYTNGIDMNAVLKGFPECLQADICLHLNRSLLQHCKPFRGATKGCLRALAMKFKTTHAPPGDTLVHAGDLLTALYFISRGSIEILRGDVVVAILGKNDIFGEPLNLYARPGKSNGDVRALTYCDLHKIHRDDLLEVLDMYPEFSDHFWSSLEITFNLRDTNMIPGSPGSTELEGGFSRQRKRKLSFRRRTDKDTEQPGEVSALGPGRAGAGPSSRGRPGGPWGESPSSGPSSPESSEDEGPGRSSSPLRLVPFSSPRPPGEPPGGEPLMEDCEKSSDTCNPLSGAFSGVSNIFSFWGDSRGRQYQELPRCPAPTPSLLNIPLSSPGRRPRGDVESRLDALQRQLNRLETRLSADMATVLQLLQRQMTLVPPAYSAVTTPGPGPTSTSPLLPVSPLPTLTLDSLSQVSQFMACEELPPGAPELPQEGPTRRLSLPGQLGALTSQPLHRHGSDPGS
row,SMILES,"hERG current change (%, negative = inhibition) at 1uM"
1,Cc1cnc(-c2nnc(N(C)C(=O)C3CCCO3)s2)cn1 (centres unmarked),4.63%
2,COc1ccccc1NC(=O)COC(=O)c1oc2ccccc2c1C,9.42%
3,COC(=O)c1ccc(C(=O)N2CCCC(Nc3ccc(F)c(F)c3)C2)cc1 (centres unmarked),7.81%
4,COc1ccc(N2CCN(c3nc4c(c(=O)n(C)c(=O)n4C)n3CCCc3ccccc3)CC2)cc1,13.6%
5,c1ccc(Nc2nc(Nc3ccccc3)nc(N3CCNCC3)n2)cc1,7.99%
6,Cc1cccc(NC(=S)N/N=C/c2ccc3c(c2)OCO3)c1,6.61%
7,COc1cccc(-c2nc(N3CCC(C)CC3)c3ccccc3n2)c1O,9.79%
8,CCOc1ccc(N(CCC#N)S(=O)(=O)c2ccc(OC)cc2)cc1,-11.7%
9,O=C(NCCc1ccccc1)C1CC(=O)N(C2CCCC2)C1 (centres unmarked),11.5%
10,COc1ccc(/C=N\N2CCN(Cc3ccccc3Cl)CC2)cc1.Cl,-8.27%
11,O=C(CCN1C(=O)C2CC=CCC2C1=O)Nc1nc(-c2ccc(F)c(F)c2)cs1 (centres unmarked),-14.4%
12,CCN(C(=O)c1cccs1)c1nc(-c2ccc(OC)cc2)cs1,13.4%
13,CC(=O)C1=C(O)CC(C)(C)CC1=NCc1nc2ccccc2[nH]1,8.31%
14,Cc1ccc2cc(CN(C(=O)c3ccco3)c3ccccc3)c(=O)[nH]c2c1,-3.6%
15,NC(=O)N/N=C/c1ccccc1OC(=O)c1cc2ccccc2oc1=O,5.7%
16,Cc1cccc(N2CC(C(=O)OCC(=O)c3ccc(OC(=O)c4cccs4)cc3)CC2=O)c1C (centres unmarked),9.92%
17,CC(C)c1ccc(C2c3[nH]c4ccccc4c3C[C@H]3C(=O)N(c4ccccc4C(=O)N4CCC(C(=O)O)CC4)C(=O)N23)cc1 (some centres unmarked),9.85%
18,Cc1nc(SC(C)C(=O)Nc2cccc(C(F)(F)F)c2)c2c(C)c(C(=O)O)sc2n1 (centres unmarked),9.81%
19,Cc1sc(NC(=O)CN(C(=O)c2ccccc2F)C2CCCC2)c(C(N)=O)c1C,4.46%
20,Cc1cccc(C)c1N(Cc1ccccc1F)S(C)(=O)=O,8.55%
21,CCn1nnnc1SCC(=O)NCc1ccc2c(c1)OCO2,16.1%
22,CCOc1ccccc1N1Cc2cc(C)c(C)cc2C1,-3.06%

row,SMILES,"hERG current change (%, negative = inhibition) at 1uM"
1,CCOCc1nnc(NC(=O)CCc2ccccc2)s1,10.1%
2,CN(c1ccccc1)S(=O)(=O)c1cccc(NC(=O)Cc2c(F)cccc2Cl)c1,-6%
3,N#Cc1ccc(COc2cccc3cccnc23)cc1,0.932%
4,CCOC(=O)C1CCN(C(=O)Nc2c(-c3ccccc3)noc2C)CC1,10.8%
5,CC(C)CCNC1=NCCCCC1,-5.32%
6,O=C(Nc1ccc(F)cc1F)c1cc(-c2ccc3c(c2)OCO3)on1,10.7%
7,CC(=O)NC(=S)Nc1sc2c(c1C(N)=O)CCC(C)C2 (centres unmarked),2.9%
8,COc1ccccc1NS(=O)(=O)c1cccc(C(=O)N/N=C/c2ccc(OCC(=O)O)cc2)c1,11.5%
9,O=C(Nc1ccccc1)C(=O)Nc1cccnc1,19.7%
10,COc1ccc(C(=O)N2CCN(c3ccccc3Cl)CC2)cc1S(=O)(=O)NC1CC1,7.63%
11,Cc1nc2nc(C)c(CCC(=O)N3CCN(c4ccccn4)CC3)c(C)n2n1,1.3%
12,O=c1c(Cc2ccc(Cl)cc2Cl)c(O)ccn1CCCN1CCOCC1,7.79%
13,CCc1ccccc1NC(=O)c1cccs1,1.03%
14,CCN1CCN(c2cc(N3CCc4ccccc4C3)c(F)cc2[N+](=O)[O-])CC1,0.12%
15,CC(C)n1c(SCC(=O)NC2CC2)nnc1C1CC1,8.7%
16,CC1CC(C)CN(C(=O)c2ccncc2)C1 (centres unmarked),11.4%
17,Cc1ccc(S(=O)(=O)C2(C(=O)N3CCCCC3C)CC2)cc1 (centres unmarked),5.14%
18,Cc1ccc(NS(=O)(=O)c2cc(NC(=O)c3ccc4c(c3)NC(=O)CS4)ccc2C)c(C)c1,3.47%
19,CCOC(=O)N1CCN(S(=O)(=O)N2CCCC(C(=O)NCc3ccccc3OC)C2)CC1 (centres unmarked),1.05%
20,CC(=O)N1CC=C2C(C#N)=C(N)C(C#N)(C#N)C(CCc3ccccc3)C2C1 (centres unmarked),9.08%
21,CCCn1c(=O)c(C(=O)Nc2c(C)n(C)n(-c3ccccc3)c2=O)c(O)c2ccccc21,3.85%
22,S=C(NCC1CCCO1)Nc1ccc(Cl)cc1 (centres unmarked),15.7%

row,SMILES,"hERG current change (%, negative = inhibition) at 1uM"
1,O=[N+]([O-])c1cccc(Cl)c1CSc1ccccn1,11%
2,Cc1ccc([C@@H]2[C@@H]3C(=O)N(C)C(=O)[C@@H]3[C@]3(Cc4ccccc4)C(=O)N(CCO)CC(=O)N23)o1,9.39%
3,Cc1ccc(N(C(=O)c2snc(C(N)=O)c2N)C(C(=O)NCC2CCCO2)c2c[nH]c3ccccc23)cc1 (centres unmarked),9.56%
4,CC(C)(C)S(=O)(=O)c1cnc2c(-c3ccc(F)cc3)cnn2c1N,-11.8%
5,COc1ccc(CCNC(=O)c2sc3ccccc3c2Cl)cc1OC,5.35%
6,Cc1nn(C)c(N)c1C(O)(c1nccn1C)C(F)(F)F (centres unmarked),8.92%
7,CCC[C@@H]1C[C@@]1(CCC)[C@@H](NC(=O)c1ccccc1)c1ccc(C(=O)OC)cc1,24.5%
8,COc1ccc(C=O)cc1COc1ccc(Cl)cc1[N+](=O)[O-],13%
9,COc1ccc(/C(=N/OC(C)=O)c2nccc3cc(OC)c(OC)cc23)cc1OC,13.8%
10,COC(=O)c1cc(C#N)c(=O)[nH]c1C,17.2%
11,CCOC(=O)Cc1c(C)[nH]n(-c2ccccc2)c1=O,14.7%
12,COc1ccc(CNC(=O)CN2C(=O)C3CCCN3c3ncc(Cl)cc32)cc1 (centres unmarked),1.3%
13,CN(CCOc1ccccc1)C(=O)C1CCC(=O)N(CCc2ccc(Cl)cc2)C1 (centres unmarked),-51.2%
14,CC(C)OP(=O)(c1ccc(N(C)C)cc1)C(O)c1cccnc1 (centres unmarked),11.7%
15,CC(=O)c1ccc(S(=O)(=O)Nc2cccc(-c3ccc(N4CCOCC4)nn3)c2)cc1,7.73%
16,Cc1ccccc1NC(=O)/C(=C\c1cccs1)NC(=O)c1ccco1,-3.3%
17,Oc1ccc(NCc2ccccc2OCc2ccccc2F)cc1,10.4%
18,CC(Sc1nc(-c2ccccc2)cc(C(F)(F)F)n1)C(=O)NCCN1CCOCC1 (centres unmarked),12.3%
19,Cc1ccc(C(=O)c2cc3ccccc3o2)cc1,11.3%
20,CN(Cc1cccc(F)c1)C(=O)c1ccccc1Sc1ccccc1C#N,13.2%
21,COc1cc(OC)c(/C=N/NC(=O)c2ccc(Cn3nc([N+](=O)[O-])cc3C)cc2)c(OC)c1,9.32%
22,COc1ccc(CCN(C)CCC(=O)Nc2cccc(C)c2)cc1OC.Cl,-44.4%

row,SMILES,"hERG current change (%, negative = inhibition) at 1uM"
1,O=C(CSc1nnnn1C1CCCCC1)N1c2ccccc2Sc2ccccc21,-2.6%
2,CC(=O)Nc1sc(NC(=O)c2ccc([N+](=O)[O-])cc2)nc1-c1cccs1,6.61%
3,COc1ccccc1CN(Cc1nc2ccccc2c(=O)[nH]1)C(=O)Nc1ccccc1,-0.616%
4,CCOC(=O)C1CCN(C(C(=O)NC2CCCCC2)c2ccc(OC)cc2)CC1 (centres unmarked),2.65%
5,O=C(NC1CCCCC1)N1CCN(C(c2ccccc2)c2ccccc2)CC1,7.83%
6,Cc1ccc(NC(=O)CCNC(=O)c2ccc(Cl)cc2)nc1,3.43%
7,O=C(NCCc1ccccc1)[C@@H]1CC=C[C@@H]2CCN(Cc3ccccc3)C(=O)[C@@H]21,8.99%
8,Cc1cnc(C(=O)Nc2ccc(F)c(F)c2)cn1,16.2%
9,CCOC(=O)C1C(c2cccnc2)NC(=O)NC1(O)C(F)(F)F (centres unmarked),10.1%
10,CC(C)(C)c1nc(SCC(=O)NNC(=O)c2ccccc2)c2ccccc2n1,14.4%
11,O=C(Nc1ccc2c(c1)OCO2)O[C@@H]1C[C@H]2CCC(=O)N3CC[C@@H](C1)[C@@H]23,19.8%
12,CC1CCCCN1CCNC(=O)CCc1nnc2n(Cc3ccccc3)c(=O)c3ccccc3n12 (centres unmarked),-8.67%
13,Cc1ccc(NC(=O)COC(=O)CNC(=O)c2ccc3ccccc3c2)c([N+](=O)[O-])c1,11.3%
14,CCNC(=S)N/N=C/c1cccc(OCc2c(F)cccc2Cl)c1,4.23%
15,O=C(Nc1nnc(-c2ccccc2Cl)s1)c1ccccc1F,13.1%
16,CCCCN(C(=O)c1ccc(N2CCCC2=O)cc1)c1c(N)n(Cc2ccccc2)c(=O)[nH]c1=O,9.93%
17,C/C(N)=C(/C#N)C(=O)CSc1cc(Cl)ccc1Cl,-1.14%
18,C=CCn1c(SCC(=O)N2CC(=O)Nc3ccccc32)nc2scc(-c3cccs3)c2c1=O,19.9%
19,CCCOC1CCCN(C(=O)c2ccc(OC3CCN(C(=O)CCOC)CC3)cc2)C1 (centres unmarked),18.2%
20,O=[N+]([O-])c1ccc(N2CCN(c3ccc(Cl)nn3)CC2)cc1NC1CC1,-4.89%
